# ± gives the standard deviation of the averaged measurements. The full ranking holds about 2,900 compounds; the median of “IRF Lucia reporter activity, fold change vs agonist alone” is about 0.9, and the highest 2% start at about 2.8. The list shows a part of the results.
# How the values were obtained:
# [1] = system: RAW-Dual; assay: IRF Lucia reporter activity, fold change vs agonist alone; cytotoxicity flag (confluency mask): cytotoxic (confluency <70% of control); higher = enhanced IRF activity
# How it was run: (§1)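 Library stock was pin-tooled at 50 nL into 384-well plates of RAW-Dual macrophages (50,000 cells/well, DMEM), followed 1 h later by a PRR agonist, and the cells were kept at 37 °C, 5% CO2. Supernatant collected after 20 hours was read for IRF by QuantiLuc luminescence and for NF-κB by QuantiBlue absorbance at 620 nm. Reporter activity is fold change over agonist-alone wells, and a well counted as cytotoxic when its IncuCyte confluency was below 70% of agonist controls in both mask sets.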
# [2] = system: RAW-Dual; assay: IRF Lucia reporter activity, fold change vs agonist alone; cytotoxicity flag (confluency mask): not cytotoxic; higher = enhanced IRF activity
# How it was run: as §1
# [3] = system: RAW-Dual; assay: IRF Lucia reporter activity, fold change vs agonist alone; higher = enhanced IRF activity; conditions: agonist: MPLA (TLR4) […]
# How it was run: as §1
# [4] = agonist: 3'3'-cGAMP (STING) 10 ug/mL
# [5] = library stock concentration (final ~1000-fold dilution): 10 mM, cytotoxicity flag (confluency mask): not cytotoxic
# [6] = library stock concentration (final ~1000-fold dilution): 10 mM, cytotoxicity flag (confluency mask): cytotoxic (confluency <70% of control)
smiles,measurement,setting,value
Cc1nnsc1C(=O)Nc1ccc(-n2nc(C(F)(F)F)cc2C(F)(F)F)cc1 (library stock concentration (final ~1000-fold dilution): 10 mM),IRF Lucia reporter activity,[1]; [4],0.929
same,IRF Lucia reporter activity,[1]; agonist: LPS (TLR4) 0.1 ug/mL,1
C=CC(=O)Nc1cccc(Nc2nc(Nc3ccc(Oc4ccnc(C(=O)NC)c4)cc3)ncc2F)c1 (library stock concentration (final ~1000-fold dilution): 10 mM),IRF Lucia reporter activity,[2]; [4],0.017
same,IRF Lucia reporter activity,[2]; agonist: LPS (TLR4) 0.1 ug/mL,0.137
C=CC(=O)Nc1cccc(Nc2nc(Nc3ccc(Oc4ccnc(C(=O)NC)c4)cc3)ncc2F)c1,IRF Lucia reporter activity,[3]; [5],0.0755
CCCOC(=O)c1cc(O)c(O)c(O)c1 (library stock concentration (final ~1000-fold dilution): 10 mM),IRF Lucia reporter activity,[2]; [4],0.151
same,IRF Lucia reporter activity,[2]; agonist: LPS (TLR4) 0.1 ug/mL,0.574
CCCOC(=O)c1cc(O)c(O)c(O)c1,IRF Lucia reporter activity,[3]; [5],0.817
CN1CCN(C2=Nc3ccccc3Oc3ccc(Cl)cc32)CC1.O=C(O)CCC(=O)O,IRF Lucia reporter activity,[3]; [5],1.26
CN1CCN(C2=Nc3ccccc3Oc3ccc(Cl)cc32)CC1.O=C(O)CCC(=O)O (library stock concentration (final ~1000-fold dilution): 10 mM),IRF Lucia reporter activity,[2]; [4],1.11
same,IRF Lucia reporter activity,[2]; agonist: LPS (TLR4) 0.1 ug/mL,1.72
CC(C)c1c(-c2ccccc2)[nH]c2c(C#N)cnn2c1=O.Cl (library stock concentration (final ~1000-fold dilution): 10 mM),IRF Lucia reporter activity,[2]; [4],1.02
same,IRF Lucia reporter activity,[2]; agonist: LPS (TLR4) 0.1 ug/mL,1.04
O=C1NC(=O)/C(=C\c2ccc(-c3ccc(F)cc3)o2)S1 (library stock concentration (final ~1000-fold dilution): 10 mM),IRF Lucia reporter activity,[2]; [4],0.904
same,IRF Lucia reporter activity,[2]; agonist: LPS (TLR4) 0.1 ug/mL,1.09
O=C1NC(=O)/C(=C\c2ccc(-c3ccc(F)cc3)o2)S1,IRF Lucia reporter activity,[3]; [5],0.949
CCN(CC)CC(O)CNc1ccc(NCC2CO2)c2c1C(=O)c1ccccc1C2=O (stereo not drawn) (library stock concentration (final ~1000-fold dilution): 10 mM),IRF Lucia reporter activity,[1]; [4],0.0163
same,IRF Lucia reporter activity,[1]; agonist: LPS (TLR4) 0.1 ug/mL,0.0453
Cl.O=c1[nH]ccc2c(S(=O)(=O)N3CCCNCC3)cccc12 (library stock concentration (final ~1000-fold dilution): 10 mM),IRF Lucia reporter activity,[2]; [4],1.12
same,IRF Lucia reporter activity,[2]; agonist: LPS (TLR4) 0.1 ug/mL,1.16
C=CC(=O)Nc1cc(Nc2nccc(-c3c[nH]c4ccccc34)n2)c(OC)cc1N(C)CCN(C)C (library stock concentration (final ~1000-fold dilution): 10 mM),IRF Lucia reporter activity,[2]; [4],1.06
same,IRF Lucia reporter activity,[2]; agonist: LPS (TLR4) 0.1 ug/mL,0.526
C=CC(=O)Nc1cc(Nc2nccc(-c3c[nH]c4ccccc34)n2)c(OC)cc1N(C)CCN(C)C,IRF Lucia reporter activity,[3]; [5],1.11
O=[N+]([O-])c1cncn1CCN1CCOCC1,IRF Lucia reporter activity,[3]; [5],1.09
O=[N+]([O-])c1cncn1CCN1CCOCC1 (library stock concentration (final ~1000-fold dilution): 10 mM),IRF Lucia reporter activity,[2]; [4],1.06
same,IRF Lucia reporter activity,[2]; agonist: LPS (TLR4) 0.1 ug/mL,0.881
Br.Br.Br.Br.Br.Br.c1ccc(CNCc2ccc(CN3CCCNCCNCCCNCC3)cc2)nc1,IRF Lucia reporter activity,"[3]; library stock concentration (final ~1000-fold dilution): 10 mM water, cytotoxicity flag (confluency mask): not cytotoxic",1.35
Br.Br.Br.Br.Br.Br.c1ccc(CNCc2ccc(CN3CCCNCCNCCCNCC3)cc2)nc1 (library stock concentration (final ~1000-fold dilution): 10 mM water),IRF Lucia reporter activity,[2]; [4],1.07
same,IRF Lucia reporter activity,[2]; agonist: LPS (TLR4) 0.1 ug/mL,0.886
Cc1ccc(NCCCc2ccccc2)c(N)c1 (library stock concentration (final ~1000-fold dilution): 10 mM),IRF Lucia reporter activity,[2]; [4],0.0185
same,IRF Lucia reporter activity,[2]; agonist: LPS (TLR4) 0.1 ug/mL,0.227
same,IRF Lucia reporter activity,[1]; [4],0.0343 ± 0.017
same,IRF Lucia reporter activity,[1]; agonist: LPS (TLR4) 0.1 ug/mL,0.583 ± 0.55
Cc1ccc(NCCCc2ccccc2)c(N)c1,IRF Lucia reporter activity,[3]; [6],0.697 ± 0.18
C=CC(=O)Nc1cc(Nc2nccc(-c3cn(C)c4ccccc34)n2)c(OC)cc1N(C)CCN(C)C (library stock concentration (final ~1000-fold dilution): 10 mM),IRF Lucia reporter activity,[1]; [4],0.0154
same,IRF Lucia reporter activity,[1]; agonist: LPS (TLR4) 0.1 ug/mL,0.408
C=CC(=O)Nc1cc(Nc2nccc(-c3cn(C)c4ccccc34)n2)c(OC)cc1N(C)CCN(C)C,IRF Lucia reporter activity,[3]; [6],0.0182
CCN(CC)CCCCC(NC(=O)C(CC(C)C)NC(=O)C(C)NC(=O)C(Cc1ccccc1)NC(=O)c1ccc(C(C)(C)C)cc1)C(=O)NC(CO)C(=O)OC (stereo not drawn) (library stock concentration (final ~1000-fold dilution): 10 mM),IRF Lucia reporter activity,[2]; [4],1.06
same,IRF Lucia reporter activity,[2]; agonist: LPS (TLR4) 0.1 ug/mL,1.16
C#Cc1cccc(Nc2ncnc3cc4c(cc23)OCCOCCOCCO4)c1 (library stock concentration (final ~1000-fold dilution): 10 mM),IRF Lucia reporter activity,[2]; [4],0.377
same,IRF Lucia reporter activity,[2]; agonist: LPS (TLR4) 0.1 ug/mL,0.533
C#Cc1cccc(Nc2ncnc3cc4c(cc23)OCCOCCOCCO4)c1,IRF Lucia reporter activity,[3]; [5],0.699
Cc1ncc(CO)c(CO)c1O (library stock concentration (final ~1000-fold dilution): 10 mM),IRF Lucia reporter activity,[2]; [4],0.88
same,IRF Lucia reporter activity,[2]; agonist: LPS (TLR4) 0.1 ug/mL,1.12
O=C(O)c1ccc(-c2c[nH]c3ncc(-c4ccccc4)cc23)cc1C1CCCC1,IRF Lucia reporter activity,[3]; [5],0.903
O=C(O)c1ccc(-c2c[nH]c3ncc(-c4ccccc4)cc23)cc1C1CCCC1 (library stock concentration (final ~1000-fold dilution): 10 mM),IRF Lucia reporter activity,[2]; [4],0.056
same,IRF Lucia reporter activity,[2]; agonist: LPS (TLR4) 0.1 ug/mL,0.712
OC(c1ccccc1)(c1ccccc1)C12CC[N+](CCOCc3ccccc3)(CC1)CC2 (library stock concentration (final ~1000-fold dilution): 10 mM),IRF Lucia reporter activity,[2]; [4],1.1
same,IRF Lucia reporter activity,[2]; agonist: LPS (TLR4) 0.1 ug/mL,0.795
OC(c1ccccc1)(c1ccccc1)C12CC[N+](CCOCc3ccccc3)(CC1)CC2,IRF Lucia reporter activity,[3]; [5],1.13
COc1cc2nccc(Oc3ccc(NC(=O)NC4CC4)c(Cl)c3)c2cc1C(N)=O.CS(=O)(=O)O (library stock concentration (final ~1000-fold dilution): 10 mM),IRF Lucia reporter activity,[2]; [4],0.502
same,IRF Lucia reporter activity,[2]; agonist: LPS (TLR4) 0.1 ug/mL,0.54
COc1cc2nccc(Oc3ccc(NC(=O)NC4CC4)c(Cl)c3)c2cc1C(N)=O.CS(=O)(=O)O,IRF Lucia reporter activity,[3]; [5],0.583
COc1cc2c(cc1-c1c(C)noc1C)ncc1[nH]c(=O)n(C(C)c3ccccn3)c12 (stereo not drawn) (library stock concentration (final ~1000-fold dilution): 10 mM),IRF Lucia reporter activity,[1]; [4],0.483
same,IRF Lucia reporter activity,[1]; agonist: LPS (TLR4) 0.1 ug/mL,0.19
COc1cc2c(cc1-c1c(C)noc1C)ncc1[nH]c(=O)n(C(C)c3ccccn3)c12 (stereo not drawn),IRF Lucia reporter activity,[3]; [6],0.171
O=c1oc2cc(O)ccc2c2ccc(O)cc12 (library stock concentration (final ~1000-fold dilution): 10 mM),IRF Lucia reporter activity,[2]; [4],0.133
same,IRF Lucia reporter activity,[2]; agonist: LPS (TLR4) 0.1 ug/mL,1.99

# Source: the supplement of paper PMC10037445
